The list shows a part of the results. Values come from read counts of a selection and are noisy. Scores sum up all selected molecules that hold the word; the word was not tested alone.
Tested on: IMP3 KH1-4
Experiment: 6-mer SELEX enrichment z-score vs GST control; IMP3 is the RNA-binding protein IGF2BP3; higher = more enriched by binding
Details: construct: KH1-4 (164-579); SELEX round: R4
Method: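 SELEX-seq with GST-tagged IMP3 KH1-4 (Pro164-Lys579) and an N40 RNA pool, round 4. 6-mer z-score of sequence-tag enrichment normalised to the corresponding GST SELEX round; RNA k-mers written as DNA (T for U).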

IMP3 KH1-4, sequence (chain, as listed by the source): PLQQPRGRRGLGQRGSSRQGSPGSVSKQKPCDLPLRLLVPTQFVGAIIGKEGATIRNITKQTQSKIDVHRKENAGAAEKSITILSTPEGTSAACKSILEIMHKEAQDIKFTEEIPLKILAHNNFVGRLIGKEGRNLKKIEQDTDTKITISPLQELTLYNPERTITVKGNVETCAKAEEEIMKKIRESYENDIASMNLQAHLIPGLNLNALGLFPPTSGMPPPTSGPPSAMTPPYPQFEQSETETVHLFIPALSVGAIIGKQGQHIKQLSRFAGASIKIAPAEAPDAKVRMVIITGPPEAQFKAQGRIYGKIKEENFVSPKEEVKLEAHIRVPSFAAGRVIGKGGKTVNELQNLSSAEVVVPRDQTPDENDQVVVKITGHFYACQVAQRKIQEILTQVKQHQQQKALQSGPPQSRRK

Sequence	6-mer SELEX enrichment z-score
AAACCG	-1.94
ATCCCC	0.016
ATCATA	2.04
ATCGCA	0.968
CGGGGA	0.571
CTTCAC	0.548
TCGTCT	-0.15
AACATG	1.41
TACCCG	-1.39
AAAGAT	0.78
AATACC	-0.993
GGCCCG	-0.546
AGGTAG	-0.238
GTGAAC	-0.111
TGATTG	0.481
CGAGTC	-1.07
GCCCTC	-0.668
ATGTAG	0.218
TAGCTC	-0.097
TCATGC	0.386

Sequence	6-mer SELEX enrichment z-score
GGTCGG	1.05
GTACAG	0.355
GCCCCT	-0.316
CCTCAA	-1.1
TGCCTA	-0.726
AGGCTC	0.04
ATAATG	1.59
TGTGGA	0.281
GAGAGC	-1.29
AGGTAC	-0.599
TACGGC	1.78
CTACCA	-0.152
CTTGGC	-0.467
GAGGAT	0.832
TGTGGG	0.42
CGGCTT	0.382
TTGGTC	-0.041
TGAGGC	0.549
AGACGC	-0.653
TATGAC	0.809
